Test results as given in PubChem BioAssay AID485294 (National Center for Advancing Translational Sciences (NCATS), 2010).
“And” between values parts separate entries of the source, which are not always exact repeats. Identical values can stand only once. Hit rate of the full screen: of about 370,000 compounds, about 150 (0.041%) were called active. Inconclusive means that the source gave no clear call. Such entries were picked first, then a sample of the others. Calls follow the shape of the dose curve; as a rule, active = well fitted inhibition curve with a large enough effect; inconclusive = small, poorly fitted or top-dose-only effect; inactive = flat fitted curve, though single readings scatter. Where the call is inconclusive, the potency comes from a doubtful curve fit.

target: Beta-lactamase (Escherichia coli (strain K12)) (UniProt P00811); assay: qHTS Inhibitors of AmpC Beta-Lactamase (assay with detergent); settings: AmpC hydrolysis of nitrocefin, absorbance 480 nm, 0.01% Triton; series mostly up to 114 µM; also: nearly all actives have a fitted effect of over 25% in size
Chain of UniProt P00811 (P00811 whole entry, looked up): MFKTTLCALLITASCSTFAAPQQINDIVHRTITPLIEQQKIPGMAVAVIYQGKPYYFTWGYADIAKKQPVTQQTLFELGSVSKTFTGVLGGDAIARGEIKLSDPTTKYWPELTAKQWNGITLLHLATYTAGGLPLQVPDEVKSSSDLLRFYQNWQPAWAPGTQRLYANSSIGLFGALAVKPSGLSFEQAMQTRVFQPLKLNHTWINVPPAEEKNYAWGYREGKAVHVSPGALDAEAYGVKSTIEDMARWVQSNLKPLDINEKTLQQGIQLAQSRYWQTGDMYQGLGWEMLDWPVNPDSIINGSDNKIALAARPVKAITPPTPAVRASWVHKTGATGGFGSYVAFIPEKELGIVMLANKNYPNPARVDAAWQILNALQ
Summary of the method: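 20 mM phosphate pH 7.0 + 0.01% (detergent screen) or 0.0001% Triton X-100; 5.3 nM AmpC reagent; cpd preinc 15 min RT; nitrocefin (800 uM stock) to start; A480 q20 s × 4 min; Activity was normalised to no-enzyme and no-compound control wells.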
Potency is read from the fitted curve at half-maximal effect; tags tell the direction and shape of the fitted curve.

SMILES | Potency
O=C(CN1CCN(Cc2ccc(Cl)cc2)C1=O)NCCCN1CCN(c2ccc(F)cc2)CC1 | inconclusive: 0.631 µM [inhibitor, full curve, poor fit]
O=C(Nc1ccccc1Sc1ccccc1)C1CCCO1 (stereo not drawn) | inconclusive: 1.12 µM [inhibitor, full curve]
O=C(O)CC1(Cc2nc(-c3cccs3)no2)CCCC1 | inconclusive: 5.01 µM [inhibitor, full curve, poor fit]
COc1cccc(C2SCC(=O)N2c2ccc(Br)cc2)c1OC (stereo not drawn) | inconclusive: 0.631 µM [inhibitor, full curve, poor fit]
COc1ccc(C2CC(=O)c3c([nH]c(C(=O)OC4CCCCCC4)c3C)C2)cc1 (stereo not drawn) | inactive
Cc1ccc(OCCC(=O)OCC(=O)NCCc2ccc(Cl)cc2)cc1 | inconclusive: 89.1 µM [inhibitor, single point]
COc1nc(C)nc(NC(=O)NS(=O)(=O)c2ccc(C)cc2)n1 | inconclusive: 100 µM [inhibitor, single point]
CCOc1ccc(CCNc2ccc3nnc(-c4ccccc4)n3n2)cc1OCC | inconclusive: 50.1 µM [inhibitor, partial curve, poor fit]
C=CCN1C(=O)CSC1=Nc1ccc(C(=O)O)cc1 | inconclusive: 1.12 µM [inhibitor, full curve, poor fit]
COc1cc2c(cc1OC)C(COc1ccc(F)cc1)N(C(=O)c1ccco1)CC2 (stereo not drawn) | inactive
CCS(=O)(=O)Nc1c(C(=O)OC)[nH]c2ccccc12 | inconclusive: 39.8 µM [inhibitor, partial curve]
CCOC(=O)c1c(C)c(C(=O)Nc2ccc3c(c2)OCO3)c(C)n1C | inactive
Cc1cc(=O)oc2cc(OCC(=O)NC3CCCC3)ccc12 | inconclusive: 39.8 µM [inhibitor, single point]
Nc1ccc(N2CCOCC2)c(S(=O)(=O)Nc2cc(Cl)ccc2Cl)c1 | inconclusive: 100 µM [inhibitor, single point]
O=C(CSCC(=O)Nc1ccc2ccccc2c1)NCc1ccccc1 | inconclusive: 1.12 µM [inhibitor, full curve]
O=C1C(Cc2cnc[nH]2)NC(=S)N1c1ccccc1 (stereo not drawn) | inconclusive: 1.12 µM [inhibitor, full curve, poor fit]
COc1cc2nc(-c3ccccc3)nc(N3CCCC3)c2cc1OC | inactive
CCCn1c(SCc2nc3ccccc3s2)n[nH]c1=O | inconclusive: 89.1 µM [inhibitor, single point]
Cc1ccc(Cn2cc(C(=O)c3ccc(F)cc3)c(=O)c3cc4c(cc32)OCCO4)cc1 | inconclusive: 631 nM [inhibitor, full curve, poor fit] and inconclusive: 89.1 µM [inhibitor, single point]
Cc1ccc(N2CCN(C(=O)c3cccs3)CC2)cc1C | inconclusive: 56.2 µM [inhibitor, partial curve, poor fit]
Cc1ccccc1-c1nc2sc3c(c2c(=O)o1)CCC3 | inconclusive: 44.7 µM [inhibitor, partial curve]
Cc1ccc(N2C(=O)CC(Sc3nc4ccccc4o3)C2=O)cc1Cl (stereo not drawn) | inconclusive: 5.62 µM [inhibitor, full curve, poor fit]
Cc1ccccc1NC(=O)CSc1[nH]c(=O)cc(C)c1C#N | inconclusive: 2.82 µM [inhibitor, full curve]

SMILES | Potency
COc1cccc(OCc2cc(C(=O)NCc3ccc4c(c3)OCO4)no2)c1 | inactive
Cc1ccc(NC(=O)c2sc(N)nc2C)cc1 | inactive
O=C(NN1CCCCC1)c1cnn2c(C(F)F)cc(-c3ccccc3)nc12 | inactive
Cc1ccccc1NC(=O)c1cn2c(nc3ccccc32)c(C#N)c1C | inconclusive: 70.8 µM [inhibitor, single point]
CCCNC(=O)c1c(C)nn(-c2cccc(C)c2)c1-n1cccc1 | inactive
COCCN1C(=O)N[C@H](c2cccc(C(F)(F)F)c2)C(C(=O)OC)=C1C | inconclusive: 5.62 µM [inhibitor, full curve, poor fit]
CC1CCN(C(=O)COc2coc(CN3CCc4ccccc43)cc2=O)CC1 | inconclusive: 89.1 µM [inhibitor, partial curve, poor fit]
O=C(CCc1nc2ccccc2n1-c1ccccc1)NCCO | inconclusive: 20 µM [inhibitor, partial curve]
O=C(C1CC(=O)N(C2CCCC2)C1)N1CCN(c2cccc(C(F)(F)F)c2)CC1 (stereo not drawn) | inconclusive: 8.91 µM [inhibitor, full curve, poor fit]
COc1cc(OC)cc(-c2nc3nc(C)c(CCC(=O)Nc4ccc(F)cc4F)c(C)n3n2)c1 | inactive
O=C(CSc1ccc2nnc(-c3ccccn3)n2n1)N1CCOCC1 | inconclusive: 112 µM [inhibitor, partial curve, poor fit]
CCOC(=O)Cc1csc(NC(=O)c2cc3c(s2)CCCC3)n1 | inconclusive: 0.708 µM [inhibitor, full curve, poor fit]
CC(=O)c1cccc(NC(=O)c2ccco2)c1 | inconclusive: 44.7 µM [inhibitor, partial curve, poor fit]
O=C(NCCc1ccccc1Cl)c1ccc2c(c1)nc1n2CCOC1 | inactive
O=C(Nc1ccc2c(c1)oc1ccccc12)N1CCOCC1 | inactive
Cc1c(NC(=O)C2(C)CCCCC2)c(=O)n(-c2ccccc2)n1C | inconclusive: 50.1 µM [inhibitor, partial curve, poor fit]
CCOC(=O)C1=C(N)OC2=C(C(=O)CC(C)(C)C2)C1c1cccs1 (stereo not drawn) | inconclusive: 0.631 µM [inhibitor, full curve, poor fit]
Cc1ccc(S(=O)(=O)N2CCCC2C(=O)NCc2ccco2)cc1 (stereo not drawn) | inconclusive: 2.82 µM [inhibitor, full curve, poor fit]
CCN1C(=O)/C(=C2/C=CC=CN2C)OC1=S | inconclusive: 0.708 µM [inhibitor, full curve, poor fit]
O=C(NCC(c1cccnc1)N1CCN(c2ccccc2F)CC1)c1ccccc1 (stereo not drawn) | inconclusive: 10 µM [inhibitor, full curve]
N/C(=N\c1nc2ccccc2o1)NC(=O)c1ccccc1Br | inactive
Cc1ccc(C)c(NC(=O)CSc2nc3[nH]ncc3c(=O)[nH]2)c1 | inconclusive: 4.47 µM [inhibitor, full curve, poor fit]
O=C(CCS(=O)(=O)c1ccccc1)Nc1ccccn1 | inactive

SMILES | Potency
Cn1c(=O)c(C(=O)NNC(=O)c2ccccc2Cl)c(O)c2ccccc21 | inactive
CC1Cc2ccccc2N1S(=O)(=O)c1cnc[nH]1 (stereo not drawn) | inconclusive: 2.51 µM [inhibitor, full curve, poor fit]
O=C1ON=C(c2ccccc2)/C1=C/c1ccc(O)cc1 | inconclusive: 39.8 µM [inhibitor, full curve, poor fit]
Cc1cc(N(C)Cc2ccccc2)nc2cc(O)ccc12 | inactive
O=C(NC1CCCCC1)c1cc([N+](=O)[O-])ccc1N1CCOCC1 | inconclusive: 20 µM [inhibitor, full curve, poor fit]
O=C(O)C1Nc2c(C(=O)N3CCOCC3)cccc2C2C=CCC12 (stereo not drawn) | inconclusive: 25.1 µM [inhibitor, full curve, poor fit]
CCC1(c2ccccc2)NC(=O)N(CC(=O)Nc2ccc(N3CCCC3)cc2C)C1=O (stereo not drawn) | inconclusive: 0.631 µM [inhibitor, full curve, poor fit]
O=C(CSc1nnc(Cc2ccccc2)o1)N1CCOCC1 | inconclusive: 0.631 µM [inhibitor, full curve]
Cn1cc(CN2CCCC(C(=O)c3nccn3C)C2)c(-c2cccc(Cl)c2)n1 (stereo not drawn) | inactive
Cc1ccc(-n2ncc3c(=O)n(CC(=O)NC4CCCCC4)cnc32)cc1C | inconclusive: 2.51 µM [inhibitor, full curve, poor fit]
C/C(CC(=O)Nc1ccc(N(C)C)cc1)=N\NC(=O)C(=O)NCc1ccccc1 | inactive
Cc1cc2c(cc1C)N(C(=O)CSC1=NCCS1)C(C)(C)c1ssc(=S)c1-2 | inactive
N#C/C(=C(/O)c1ccco1)c1nc2ccccc2s1 | inactive
CCc1ccccc1NC(=O)Cn1nnc(-c2cccs2)n1 | inactive
COc1ccc(-c2cc(=O)oc3cc(OCC(=O)N4C[C@H]5C[C@@H](C4)c4cccc(=O)n4C5)ccc23)cc1 | inconclusive: 0.0112 µM [inhibitor, full curve, poor fit]
Cc1ccc(C)c(N2N=C(C(=O)OCC(=O)N(C)c3ccccc3)CCC2=O)c1 | inconclusive: 28.2 µM [inhibitor, full curve, poor fit]
CCCn1nc(C(=O)Nc2ccc3nc(C)sc3c2)c2ccccc2c1=O | inconclusive: 1.78 µM [inhibitor, full curve, poor fit]
Cc1cc2c(cc1S(=O)(=O)Nc1cccc(C)c1C)n(C)c(=O)c(=O)n2C | inactive
CN1CCc2c(sc(NC(=O)CS(=O)(=O)c3ccccc3)c2C(N)=O)C1 | inconclusive: 63.1 µM [inhibitor, single point]
COc1ccccc1NC(=O)CSc1nc(O)cc(=O)n1-c1ccccc1OC | inactive
COc1ccc(CN2C(=O)c3oc4ccc(F)cc4c(=O)c3C2c2ccc(O)cc2)cc1 (stereo not drawn) | inconclusive: 22.4 µM [inhibitor, single point]
COC(=O)C1=C(C)N=c2s/c(=C3\C(=O)Nc4ccccc43)c(=O)n2C1c1ccccc1 (stereo not drawn) | inconclusive: 0.631 µM [inhibitor, full curve]
